Results published in publication PMC4336329 (PLoS ONE, 2015).
About 2,200 (0.71%) of roughly 310,000 compounds showed an effect of 50% or more. The effect is printed as a negative number. Some of the results follow.

target: human ether-à-go-go-related gene (hERG) potassium channel (human, UniProt Q12809); assay: primary screen, population patch clamp on CHO cells stably expressing hERG
Sequence (Q12809 whole entry, looked up): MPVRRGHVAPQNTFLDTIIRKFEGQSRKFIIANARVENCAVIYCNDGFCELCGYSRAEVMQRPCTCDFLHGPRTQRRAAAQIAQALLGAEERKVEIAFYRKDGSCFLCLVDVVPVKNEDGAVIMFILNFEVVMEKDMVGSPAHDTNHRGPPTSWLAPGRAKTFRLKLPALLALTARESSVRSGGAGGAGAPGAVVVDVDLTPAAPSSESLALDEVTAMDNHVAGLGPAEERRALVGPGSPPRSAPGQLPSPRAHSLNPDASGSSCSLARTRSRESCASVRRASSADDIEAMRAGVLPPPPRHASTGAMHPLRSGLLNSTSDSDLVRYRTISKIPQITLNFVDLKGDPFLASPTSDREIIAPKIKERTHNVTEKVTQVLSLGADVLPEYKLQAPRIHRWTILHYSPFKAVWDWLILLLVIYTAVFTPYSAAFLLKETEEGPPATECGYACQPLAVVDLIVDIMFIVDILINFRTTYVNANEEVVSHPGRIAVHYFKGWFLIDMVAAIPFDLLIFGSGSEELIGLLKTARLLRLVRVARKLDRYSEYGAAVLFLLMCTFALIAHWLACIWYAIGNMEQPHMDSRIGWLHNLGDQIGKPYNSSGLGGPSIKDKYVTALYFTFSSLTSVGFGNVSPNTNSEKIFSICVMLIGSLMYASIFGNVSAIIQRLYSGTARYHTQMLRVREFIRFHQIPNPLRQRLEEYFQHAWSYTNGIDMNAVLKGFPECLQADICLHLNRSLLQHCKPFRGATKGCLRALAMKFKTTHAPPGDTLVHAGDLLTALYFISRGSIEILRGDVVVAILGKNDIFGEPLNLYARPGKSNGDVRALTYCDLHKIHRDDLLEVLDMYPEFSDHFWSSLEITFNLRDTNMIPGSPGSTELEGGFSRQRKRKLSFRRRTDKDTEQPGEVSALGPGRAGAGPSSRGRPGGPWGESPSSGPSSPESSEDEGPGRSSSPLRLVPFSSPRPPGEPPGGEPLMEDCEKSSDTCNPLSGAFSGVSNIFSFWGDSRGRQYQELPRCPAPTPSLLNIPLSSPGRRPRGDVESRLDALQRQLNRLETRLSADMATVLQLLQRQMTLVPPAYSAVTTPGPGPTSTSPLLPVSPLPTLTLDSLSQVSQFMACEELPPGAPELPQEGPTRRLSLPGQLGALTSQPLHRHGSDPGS

SMILES | hERG current change (%, negative = inhibition) at 1uM [%]
CN(C)S(=O)(=O)c1ccc(-c2csc(N/N=C/c3ccc(O)cc3)n2)cc1 | 4.54
Cl.Fc1ccc(CN2C3=NCCN3c3ccccc32)cc1 | -17.6
Nc1cccc2c1C(=O)N(CCOc1ccccc1F)C2=O | 19.2
O=C(NCC1CCCO1)C1CC(=O)N(c2ccc(F)c(Cl)c2)C1 (stereo not drawn) | 11.8
O=C(CCN1C(=O)[C@@H]2Cc3ccccc3CN2C1=O)N[C@H](C(=O)O)c1ccccc1 | 20.4
Cc1ccc(C(=O)OCC(=O)c2ccc(S(=O)(=O)N3CCCCC3)cc2)o1 | -1.15
CCN(CC(=O)NCc1ccc(Cl)cc1)C(=O)c1oc2ccccc2c1C | -3.13
CC1CCN(c2ccc3nnc(CCC(=O)NCC(C)c4ccccc4)n3n2)CC1 (stereo not drawn) | -1.42
O=C(CSc1ccccc1)Nc1cccc(S(=O)(=O)N2CCOCC2)c1 | 2.3
O=C(Cc1c(F)cccc1Cl)Nc1nccs1 | 12.5
Cn1c(C(=O)NCc2ccco2)cc2c(=O)[nH]c3ccccc3c21 | 16.6
O=C(Nc1ccc(S(=O)(=O)N2CCCCC2)cc1)C1CCCO1 (stereo not drawn) | 8.08
Cc1ccc(N/N=C2\COC(C)(C)CC2=O)cc1 | 8.74
C=CC1C(OC2OC(CO)C(O)C(O)C2O)OC=C(C(=O)OC)C1CC1CC(=O)CC(CC(=O)CCc2ccc(O)cc2)O1 (stereo not drawn) | 7.61
CCCCC(Sc1nc(N)c(NC(=O)c2ccc(OC)cc2)c(=O)[nH]1)C(=O)O (stereo not drawn) | 11.2
O=C(c1cccc(C(=O)N2CCN(c3ccccc3F)CC2)c1)N1CCN(c2ccccc2F)CC1 | -1.98
CC(C)NC(=O)/C(=C\c1cccc([N+](=O)[O-])c1)NC(=O)c1ccccc1 | -7.27
CCN(C1CCS(=O)(=O)C1)S(=O)(=O)c1cccc([N+](=O)[O-])c1 (stereo not drawn) | 1.52
CC(=O)/C(=N\Nc1ccccc1)Sc1cccc2cccnc12 | 1.5
Cc1ccc(C)c(OCC(=O)Nc2c[nH]c(=O)[nH]c2=O)c1 | 18.4
Cc1cc(SCC(=O)Nc2ccccc2C)nc(C)n1 | 5.15
Cc1c(NC(=S)NC(=O)CCc2ccccc2)c(=O)n(-c2ccccc2)n1C | 8.36
Cc1cc(C)n(-c2ccc(C(=O)Nc3ccc(S(=O)(=O)NCc4ccco4)cc3)cc2)n1 | 2.49
Cc1ccccc1OCC(=O)Nc1ccc(S(=O)(=O)N2CCCC2)cc1 | 0.97
